# Measured values: PubChem BioAssay AID1508649 (National Center for Advancing Translational Sciences (NCATS), 2021)
# Among all 43,000 compounds or so, about 830 (1.9%) were called active. The inconclusive results got no clear call from the source; some entries with a clear call stand among them for comparison. Rule for the calls: active = clear falling dose curves in both reporters; inconclusive = both reporters move, but less clearly or upward; inactive = either reporter flat; the % is the NLuc reporter signal. No potency is given beside an inconclusive call; the fits are too rough.
# Assay: Cell-based coincidence reporter assay to measure PMP22 gene transcription in S16 Pmp22-F2sN cells - Primary screen
# Conditions: S16 Pmp22-F2sN Schwann cells (luciferase reporters placed in the Pmp22 gene), FLuc/NLuc coincidence luminescence, 24 h; measured here: NLuc reporter readout, at 57.5 µM (top of the series); activity change, negative = inhibition: at the top concentration
# How it was run: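 Luminescent read-out of sequential FLuc and NLuc signals from a reporter embedded in the Pmp22 3' UTR of S16 Schwann cells, taken after 24 h compound exposure at 37C; compounds reducing both signals score as inhibitors of expression.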
# % is set by controls: 0 for no effect and ±100 for the full control effect; potency is the fitted concentration of half-maximal effect; tags give direction and shape of the fitted curve.
Compound,Potency,"activity change, negative = inhibition"
Cc1cccc(Cc2c(C)nc3nc(SCc4ccccc4C)nn3c2C)c1,"inconclusive [phenotype inactive, single point]",
COc1cccc(-n2c(SCc3ccccc3C)nc3c([nH]c4ccccc43)c2=O)c1,"inconclusive [phenotype inactive, partial curve]",
CC(=O)c1ccc(NC(=O)CCc2c(C)nc3cc(-c4ccc(Cl)cc4)nn3c2C)cc1,,inactive: -29%
CCc1ccc(NC(=O)Cn2c(=O)n(CCC(=O)NCc3ccc4c(c3)OCO4)c(=O)c3ccccc32)cc1,"inconclusive [phenotype inactive, single point]",
Cc1ccc(C(=O)NCC(c2cccnc2)N2CCc3ccccc32)cc1C (centres undefined),"inconclusive [phenotype inactive, single point]",
O=C(CCn1ccc2cc(S(=O)(=O)N3CCCC3)ccc21)NCc1cccc(Br)c1,"inconclusive [phenotype inactive, single point]",
CCOC(=O)c1c(C)oc2nc(C)nc(NCc3ccccc3OCC)c12,"inconclusive [phenotype inactive, single point]",
CCOC(=O)c1ccc(NC(=O)C(Cc2ccccc2)NS(=O)(=O)c2ccc(Br)s2)cc1 (centres undefined),,inactive: -26.8%
COc1cc(OC)c(NS(=O)(=O)c2ccc3c(c2)NC(=O)CCS3)cc1Cl,active: 14.1 µM,
CCOc1ccc(NC(=O)Cn2nnc(C(=O)Nc3ccc(OCC)cc3)c2N)cc1,,inactive: -11.2%
Nc1c(C(=O)Nc2ccccc2)nnn1Cc1ccc(F)cc1Cl,,inactive: -17.5%
Cc1ccccc1NC(=O)Cn1c(=O)n(CC2CCC(C(=O)NCCc3ccccc3)CC2)c(=O)c2ccccc21 (centres undefined),"inconclusive [phenotype inactive, single point]",
CSc1ccc(CNC(=O)c2ccc(NC(=O)c3nsc4ccccc34)cc2)cc1,"inconclusive [phenotype inactive, partial curve, poor fit]",
COc1cccc(-n2c(SCC(=O)c3ccc(Cl)cc3)nc3c([nH]c4ccccc43)c2=O)c1,active: 10 µM,
Cc1ccsc1CN(C(=O)c1oc2cc(Br)ccc2c1C)C1CCS(=O)(=O)C1 (centres undefined),"inconclusive [phenotype inactive, single point]",
O=C(NCc1ccc2c(c1)OCO2)c1ccc2c(c1)N(Cc1ccccc1)C(=O)c1ccccc1S2=O (centres undefined),"inconclusive [phenotype inactive, partial curve, poor fit]",
Cc1cc2nn(-c3ccc(F)cc3)nc2cc1NC(=O)c1cccc2ccccc12,"inconclusive [phenotype inactive, single point]",
COc1ccc(C(=O)Nc2cc(C(C)C)c(O)c(S(=O)(=O)c3ccc(Cl)cc3)c2C)cc1,,inactive: 18.5%
CCN(CC)c1ccc(CN(C(=O)Cc2coc3ccc(C)cc23)C2CCS(=O)(=O)C2)cc1 (centres undefined),"inconclusive [phenotype inactive, single point]",
COc1cccc(C(=O)N2c3cc(C)ccc3C(C)(c3ccccc3)CC2(C)C)c1 (centres undefined),"inconclusive [phenotype inactive, single point]",

Compound,Potency,"activity change, negative = inhibition"
CC(C)OCCCNC(=O)c1cc2c(-c3ccc(Cl)cc3)nn(C)c2s1,"inconclusive [phenotype inactive, single point]",
COc1cc(C(=O)Nc2ccc3oc(-c4ccc(C)c(Br)c4)nc3c2)cc(OC)c1OC,,inactive: -15.8%
COc1cccc(N2CCN(C(=O)C3CCN(S(=O)(=O)c4ccc5c(c4)oc(=O)n5C)CC3)CC2)c1,,inactive: -20.8%
COc1ccccc1CNC(=O)c1ccc(-c2nc(CN3CCc4ccccc43)c(C)o2)cc1,"inconclusive [phenotype inactive, partial curve]",
CCC(=O)N1CCc2cc(Br)cc(S(=O)(=O)N3CCCC(C(=O)N(C)c4ccc(Br)cc4)C3)c21 (centres undefined),"inconclusive [phenotype inactive, single point]",
COc1ccccc1CNC(=O)c1ccc(N2CCCC2)c(NC(=O)NCc2ccccc2)c1,"inconclusive [phenotype inactive, single point]",
COc1ccccc1N1CCN(S(=O)(=O)c2c(C)sc3ncn(CC(=O)Nc4cccc(Cl)c4)c(=O)c23)CC1,"inconclusive [phenotype inactive, single point]",
CCCOc1ccc(-c2nn(-c3ccccc3)cc2C2NC(=O)NC(C)=C2C(=O)OC(C)C)cc1 (centres undefined),"inconclusive [phenotype inactive, single point]",
COc1ccc(C)cc1NC(=O)c1cc(S(=O)(=O)NC2CCCCCC2)ccc1F,"inconclusive [phenotype inactive, single point]",
CN(C)CCNC(=O)c1ccc(-n2c(-c3ccccc3)cc3c2CCCC3)cc1,active: 20 µM,
CC(C)Oc1ccc(CNC(=O)CCCn2c(=O)c3cccn3c3ccccc32)cc1,"inconclusive [phenotype inactive, single point]",
O=C1CN(C(=O)c2ccc(S(=O)(=O)N3CCCCC3)cc2)C(c2ccc(F)cc2)c2cc(F)ccc2N1 (centres undefined),"inconclusive [phenotype inactive, single point]",
Cc1ccc(CNC(=O)C2CCCN(S(=O)(=O)c3ccc4c(c3)oc(=O)n4C)C2)cc1 (centres undefined),"inconclusive [phenotype inactive, single point]",
O=C(CSc1nc(-c2ccccc2)no1)N1CCN(c2ccccc2F)CC1,,inactive: -19%
Cc1oc2ccc(O)c(CN(C)Cc3ccccc3)c2c1C(=O)Nc1cccc(C(F)(F)F)c1,"inconclusive [phenotype inactive, single point]",
COC(=O)C(Cc1c[nH]c2ccccc12)NC(=O)COc1ccc(Cl)cc1Cl (centres undefined),,inactive: -0.471%
CC1=Nc2cc(C(=O)NCCc3ccc(Cl)cc3)ccc2Sc2ccc(C)cc21,active: 9.46 µM,
Cc1ccc(C(C)C)c(OCC(=O)Nc2cccc(NC(=O)c3ccco3)c2)c1,"inconclusive [phenotype inactive, partial curve, poor fit]",
CCC(Oc1ccc(F)cc1)C(=O)Nc1nc(-c2ccc(F)cc2)ns1 (centres undefined),"inconclusive [phenotype inactive, single point]",
CCn1c(=O)cc(SCC(=O)N2CCN(c3cc(C)ccc3C)CC2)c2ccccc21,"inconclusive [phenotype inactive, single point]",

Compound,Potency,"activity change, negative = inhibition"
Cc1cc(C)c2c(C)c(C(=O)N3CCC(c4nc5ccccc5s4)CC3)oc2c1,"inconclusive [phenotype inactive, single point]",
OCc1nc2ccccc2n1Cc1c(F)cccc1Cl,"inconclusive [phenotype inactive, partial curve, poor fit]",
COc1ccc(-c2noc(CN3CCN(c4cccc(Cl)c4)CC3)n2)cc1,,inactive: -1.57%
CCCN1CCN(CCCNC(=O)Cn2c(-c3cccs3)cc3ccccc32)CC1,"inconclusive [phenotype inactive, single point]",
Cn1nc(-c2ccccc2F)c2cc(C(=O)N3CCN(c4ccc(F)cc4)CC3)sc21,"inconclusive [phenotype inactive, single point]",
COCCCNC(=O)c1cnn(-c2ccccc2Cl)c1C1CCN(C(=O)OC(C)(C)C)CC1,,inactive: -18.6%
CCc1ccc(NC(=O)CSc2c(C)cnc3c2c(=O)n(C)c(=O)n3C)cc1,"inconclusive [phenotype inactive, partial curve, poor fit]",
COc1cccc(NC(=O)C2CCCN(c3nnc(-n4c(C)ccc4C)s3)C2)c1 (centres undefined),"inconclusive [phenotype inactive, partial curve, poor fit]",
CC(C)CCNC(=O)Nc1ccc2c(c1)N(C)C(=O)c1ccccc1S2,"inconclusive [phenotype inactive, single point]",
CC(=O)c1ccc(NC(=O)CC2Nc3cccc4cccc(c34)NC2=O)cc1 (centres undefined),"inconclusive [phenotype inactive, single point]",
CCOc1ccccc1NC(=O)N1CCN(Cc2nc3ccc(C)cc3o2)CC1,"inconclusive [phenotype inactive, single point]",
CCOc1ccc(-c2nnc(SCC(=O)NCc3ccccc3)nc2-c2ccc(OCC)c(OC)c2)cc1OC,"inconclusive [phenotype inactive, single point]",
COc1ccc(N2CCN(C(=O)CCc3c(C)nc4cc(-c5ccc(Cl)cc5)nn4c3C)CC2)cc1,,inactive: -16.9%
CCN1c2ccccc2-c2nc(SCC(=O)Nc3cc(OC)cc(OC)c3)ncc2S1(=O)=O,"inconclusive [phenotype inactive, single point]",
CC(Oc1ccccc1)C(=O)Nc1ccccc1C(=O)OCc1cc(=O)n2nc(C3CC3)sc2n1 (centres undefined),active: 6.48 µM,
COc1cccc(NC(=O)C2CC(=O)N(c3ccc(Br)cc3)C2)c1 (centres undefined),,inactive: -1.77%
Cc1c(CNC2CCCCC2)c(C(=O)O)c(C)n1Cc1ccc(F)cc1,,inactive: -8.24%
O=C(c1cc2ccc3cccnc3c2[nH]1)N1CCN(c2ccc(Cl)cc2)CC1,,inactive: -4.66%
CCOC(=O)COc1ccc([N+](=O)[O-])cc1-c1ccnc2cc(-c3ccc(C)cc3)nn12,"inconclusive [phenotype inactive, partial curve, poor fit]",
